# Experimental data from paper PMC9911399, “Two distinct binding modes provide the RNA-binding protein RbFox with extraordinary sequence specificity”.
# Residue numbers refer to the chain shown, from its start. Some of the results follow.
# T1: RBFOX1 RRM RbFoxmut (Fox-RRM*) (Homo sapiens, UniProt Q9NWB1 109-208, R118D;E147R;N151S;E152T)
# T1 sequence: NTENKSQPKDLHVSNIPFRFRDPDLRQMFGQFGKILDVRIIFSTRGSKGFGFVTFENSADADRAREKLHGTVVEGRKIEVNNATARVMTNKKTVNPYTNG
# B1: AUGAAGC (DNA:RNA)
# RNA: GGGAGACCGGAAUUCAGAUUGUCCAUGAAGCUUAAAUCCCGUCGUAGCCACCA
# DNA 1: CAATCTGAATTCCGGTCTCCC
# DNA 2: TGGTGGCTACGACGGGATT
# B2: AAACGUC (DNA:RNA)
# RNA: B1 RNA with U26A, G27A, A28C, A29G, G30U
# DNA 1: CAATCTGAATTCCGGTCTCCC
# DNA 2: TGGTGGCTACGACGGGATT
# B3: GAUGACA (DNA:RNA)
# RNA: B1 RNA with A25G, U26A, G27U, A28G, G30C, C31A
# DNA 1: CAATCTGAATTCCGGTCTCCC
# DNA 2: TGGTGGCTACGACGGGATT
# B4: AGCAAGU (DNA:RNA)
# RNA: B1 RNA with U26G, G27C, C31U
# DNA 1: CAATCTGAATTCCGGTCTCCC
# DNA 2: TGGTGGCTACGACGGGATT
# B5: UGUACUA (DNA:RNA)
# RNA: B1 RNA with A25U, U26G, G27U, A29C, G30U, C31A
# DNA 1: CAATCTGAATTCCGGTCTCCC
# DNA 2: TGGTGGCTACGACGGGATT
# B6: GCUAGUG (DNA:RNA)
# RNA: B1 RNA with A25G, U26C, G27U, A29G, G30U, C31G
# DNA 1: CAATCTGAATTCCGGTCTCCC
# DNA 2: TGGTGGCTACGACGGGATT
# B7: AGCGUAA (DNA:RNA)
# RNA: B1 RNA with U26G, G27C, A28G, A29U, G30A, C31A
# DNA 1: CAATCTGAATTCCGGTCTCCC
# DNA 2: TGGTGGCTACGACGGGATT
# B8: UUCGAGC (DNA:RNA)
# RNA: B1 RNA with A25U, G27C, A28G
# DNA 1: CAATCTGAATTCCGGTCTCCC
# DNA 2: TGGTGGCTACGACGGGATT
# B9: AGAUCCG (DNA:RNA)
# RNA: B1 RNA with U26G, G27A, A28U, A29C, G30C, C31G
# DNA 1: CAATCTGAATTCCGGTCTCCC
# DNA 2: TGGTGGCTACGACGGGATT
# B10: GAGCUUG (DNA:RNA)
# RNA: B1 RNA with A25G, U26A, A28C, A29U, G30U, C31G
# DNA 1: CAATCTGAATTCCGGTCTCCC
# DNA 2: TGGTGGCTACGACGGGATT
# B11: GCCUAGG (DNA:RNA)
# RNA: B1 RNA with A25G, U26C, G27C, A28U, C31G
# DNA 1: CAATCTGAATTCCGGTCTCCC
# DNA 2: TGGTGGCTACGACGGGATT
# B12: UAAGAGU (DNA:RNA)
# RNA: B1 RNA with A25U, U26A, G27A, A28G, C31U
# DNA 1: CAATCTGAATTCCGGTCTCCC
# DNA 2: TGGTGGCTACGACGGGATT
# B13: GGUUCAG (DNA:RNA)
# RNA: GGGAGACCGGAAUUCAGAUUGUCCGGUUCAGUUAAAUCCCGUCGUAGCCACCA
# DNA 1: CAATCTGAATTCCGGTCTCCC
# DNA 2: TGGTGGCTACGACGGGATT
# B14: GAAGCAA (DNA:RNA)
# RNA: B13 RNA with G26A, U27A, U28G, G31A
# DNA 1: CAATCTGAATTCCGGTCTCCC
# DNA 2: TGGTGGCTACGACGGGATT
# B15: AGGUUGA (DNA:RNA)
# RNA: B1 RNA with U26G, A28U, A29U, C31A
# DNA 1: CAATCTGAATTCCGGTCTCCC
# DNA 2: TGGTGGCTACGACGGGATT
# B16: UGUGAUU (DNA:RNA)
# RNA: B13 RNA with G25U, U28G, C29A, A30U, G31U
# DNA 1: CAATCTGAATTCCGGTCTCCC
# DNA 2: TGGTGGCTACGACGGGATT
# B17: CUUUGGC (DNA:RNA)
# RNA: B1 RNA with A25C, G27U, A28U, A29G
# DNA 1: CAATCTGAATTCCGGTCTCCC
# DNA 2: TGGTGGCTACGACGGGATT
# B18: GUUGCUC (DNA:RNA)
# RNA: B13 RNA with G26U, U28G, A30U, G31C
# DNA 1: CAATCTGAATTCCGGTCTCCC
# DNA 2: TGGTGGCTACGACGGGATT
# B19: GCCAAUU (DNA:RNA)
# RNA: B1 RNA with A25G, U26C, G27C, G30U, C31U
# DNA 1: CAATCTGAATTCCGGTCTCCC
# DNA 2: TGGTGGCTACGACGGGATT
# B20: UCUCUGA (DNA:RNA)
# RNA: B1 RNA with A25U, U26C, G27U, A28C, A29U, C31A
# DNA 1: CAATCTGAATTCCGGTCTCCC
# DNA 2: TGGTGGCTACGACGGGATT
# Molecular target: T1, RBFOX1 RRM RbFoxmut (Fox-RRM*)
# Test: EMSA; HiTS-Eq, 1 nM pool, 10 min; buffer printed only for the single-RNA assays: 10 mM Tris pH 7.5, 150 mM NaCl, 3.4 mM EDTA, 0.001% NP-40, 30 C
# Conditions: tags: His6 N-terminal (pET28a); label: 5' 32P
# Procedure, shortened: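 A pool of RNA with 7 randomized nucleotides, 5′-radiolabelled and with DNA-annealed flanks, was equilibrated at 1 nM for 10 min in 50 µL with purified RbFox RRM, wild type or mutant, across increasing protein concentrations. Free RNA was separated by 8% native PAGE, excised, reverse-transcribed, barcoded by PCR and sequenced. Relative association constants were obtained from read-count changes of each RNA species versus the control reaction and normalised to the cognate motif.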
row,Binder,binding signal
1,B1,0.116 KA relative to UGCAUGU
2,B2,0.0555 KA relative to UGCAUGU
3,B3,0.0578 KA relative to UGCAUGU
4,B4,0.0932 KA relative to UGCAUGU
5,B5,0.106 KA relative to UGCAUGU
6,B6,0.13 KA relative to UGCAUGU
7,B7,0.129 KA relative to UGCAUGU
8,B8,0.116 KA relative to UGCAUGU
9,B9,0.0586 KA relative to UGCAUGU
10,B10,0.253 KA relative to UGCAUGU
11,B11,0.115 KA relative to UGCAUGU
12,B12,0.0977 KA relative to UGCAUGU
13,B13,0.131 KA relative to UGCAUGU
14,B14,0.0691 KA relative to UGCAUGU
15,B15,0.231 KA relative to UGCAUGU
16,B16,0.125 KA relative to UGCAUGU
17,B17,0.118 KA relative to UGCAUGU
18,B18,0.0758 KA relative to UGCAUGU
19,B19,0.0539 KA relative to UGCAUGU
20,B20,0.074 KA relative to UGCAUGU
